Results reported in PMC8694192, “Synthesis and biological evaluation of new derivatives of thieno-thiazole and dihydrothiazolo-thiazole scaffolds integrated with a pyrazoline nucleus as anticancer and multi-targeting kinase inhibitors” (RSC Advances, 2021).

Tested on: MCF-7 cells
Test: DNA-flow cytometric cell cycle analysis (PI staining)
Format: cell-based, human
Settings: MCF-7, 24 h
Protocol: More details in the ESI. ^†
DMSO was utilized as a negative control. The stages of cell cycle were being detected via flow cytometry after propidium iodide (PI) staining followed by RNAse treatment.[63] In this experiment, MCF-7 cells were incubated with a concentration of 4.021 μM for compound 1 and with 8.35 μM for compound 3c for 24 h. The flow cytometry approach was used to quantify cell populations at various stages of the cell cycle (pre-G1, G1, S and G2/M phases).
screening of final compounds.
using 1 μM concentration of ATP.
1.2.4. Annexin V-FITC apoptosis assay
Briefly, cells were seeded

[1] = 4.021 μM for compound 1, 8.35 μM for 3c

With `Cc1c(NC2=NC(=O)CS2)c(=O)n(-c2ccccc2)n1C` [Compound 1, 2-((1,5-Dimethyl-3-oxo-2-phenyl-2,3-dihydro-1H-pyrazol-4-yl)amino)thiazol-4(5H)-one] as the molecule, how does the “percentage of cells at S phase” value [1] read?
Its value is 24.11%.

And the “cell cycle arrest phase” value (at IC50 concentration)?
The value was “G2/M phase”.

For `Cc1c(Nc2nc3c(C(=O)NN)c(N)sc3s2)c(=O)n(-c2ccccc2)n1C` [Compound 3c, 5-Amino-2-((1,5-dimethyl-3-oxo-2-phenyl-2,3-dihydro-1H-pyrazol-4-yl)amino) thieno[3,2-d]thiazole-6-carbohydrazide], which “percentage of cells at pre-G1” value [1] is on record?
Its value is 19.62%.
